Source: the supplement of paper PMC8183993
Values joined by “and” are separate entries in the source; they are usually repeats but may differ in a detail not shown here. Equal values may be shown once. Where a name gives a salt, the structure may show the parent alone. ± gives the standard deviation of the averaged measurements. Over roughly 3,100 compounds, “mean cytoplasmic OPP incorporation (global translation) relative to DMSO” has its median near 100; the lowest 2% begin near 56. Some of the results follow.

Test system: U2OS
Experiment: mean cytoplasmic OPP incorporation (global translation) relative to DMSO (% of DMSO); higher = more protein synthesis
Details: 10 µM; 24 h
Method: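 Primary image-based screen in U2OS cells: compounds at 10 uM for 24 h, then a 1 h o-propargyl-puromycin (OPP) pulse, click labelling, and high-throughput microscopy. Mean cytoplasmic OPP intensity and nuclei count were normalised to DMSO wells within each plate (DMSO = 100) and averaged over triplicate plates.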

SMILES | mean cytoplasmic OPP incorporation
O=c1[nH]cnc2c1ncn2[C@@H]1O[C@H](CO)[C@@H](O)[C@H]1O [Inosine] | 105
CCCCOc1cc(CC2CNC(=O)N2)ccc1OC (centres undefined) | 97.5
O=C1NC(=O)/C(=C/c2ccc3c(c2)OC(F)(F)O3)S1 | 94.4
CCOC(=O)[C@@](C)(N)Cc1ccc(O)c(O)c1 [Methyldopate hydrochloride] | 103
O=C(c1ccccc1)c1ccc2n1CCC2C(=O)O (centres undefined) [Ketorolac tromethamine] | 102
COc1c(N2CCNC(C)C2)c(F)cc2c(=O)c(C(=O)O)cn(C3CC3)c12 (centres undefined) [Gatifloxacin] | 105
CNC(=O)[C@H]1O[C@@H](n2cnc3c(NCc4cccc(I)c4)nc(Cl)nc32)[C@H](O)[C@@H]1O | 101
CCN(CC)CCCC(C)Nc1nc(C)cc(Nc2ccc3nc(C)cc(N)c3c2)n1 (centres undefined) | 105 ± 5.5
O=C(C[S+]([O-])Cc1ccco1)NC/C=C\COc1cc(CN2CCCCC2)ccn1 (centres undefined) [Lafutidine] | 102
O=[N+]([O-])c1cccc2c[nH]nc12 | 102
C#CCC(Cc1cnc2nc(N)nc(N)c2n1)c1ccc(C(=O)N[C@@H](CCC(=O)O)C(=O)O)cc1 (some centres undefined) [Pralatrexate (Folotyn)] | 84.1
CN(CC[C@@H](Oc1ccc(-c2ccccc2)cc1)c1ccc(F)cc1)CC(=O)O [ALX 5407 hydrochloride] | 99.5
O=C(NOCC(O)CO)c1cc(Br)c(F)c(F)c1Nc1ccc(I)cc1F (centres undefined) | 91.9
CN(C)CC(c1ccc(O)cc1)C1(O)CCCCC1 (centres undefined) [Desvenlafaxine Succinate] | 98.6
COc1ccc(S(=O)(=O)N(CCO)c2ccccc2CN(C)C/C=C/c2ccc(Cl)cc2)cc1 [KN-93 Phosphate] | 116
O=C(Nc1ccccc1Br)N[C@@H]1CCN(c2ccc(C(F)(F)F)cn2)C1 | 93
c1ccc(CNc2ncnc3nc[nH]c23)cc1 [Aminopurine, 6-benzyl] | 95.9
CCN[C@@H]1C[C@H](N)[C@@H](O[C@H]2OC(CN)=CC[C@H]2N)[C@H](O)[C@H]1O[C@H]1OC[C@](C)(O)[C@H](NC)[C@H]1O [Netilmicin Sulfate] | 101
CC(C)(O)c1ccccc1CC[C@@H](SCC1(CC(=O)O)CC1)c1cccc(/C=C/c2ccc3ccc(Cl)cc3n2)c1 [Montelukast] | 110
O=C1NC(=O)C(c2ccccc2)(c2ccccc2)N1 [Phenytoin] | 109
O=C1NC(=O)C(=Cc2ccc(-c3ccc(F)cc3)o2)S1 (stereo in doubt) | 108.23 ± 0.0099
CN1Cc2c(N)cccc2C(c2ccccc2)C1 (centres undefined) [Nomifensine maleate] | 94.2
CN(C)C/C=C/C(=O)Nc1cc2c(Nc3ccc(F)c(Cl)c3)ncnc2cc1O[C@H]1CCOC1 [Afatinib (BIBW2992)] | 97
OC[C@@H](O)[C@@H](O)[C@@H](O)CO [Ribitol (Adonitol)] | 101
O=C(Nc1ccccc1)Nc1ccc(-c2ccc(C(=O)[C@@H]3CCC[C@H]3C(=O)O)cc2)cc1 | 101
COc1ccccc1OCC(O)COC(N)=O (centres undefined) [Methocarbamol] | 101
Cc1cc(N)c2ccccc2[n+]1CCCCCCCCCC[n+]1c(C)cc(N)c2ccccc21 [Dequalinium dichloride] | 106

SMILES | mean cytoplasmic OPP incorporation
Nc1ccn([C@@H]2CS[C@H](CO)O2)c(=O)n1 [Lamivudine] | 102
COC(=O)Nc1nc2cc([S+]([O-])c3ccccc3)ccc2[nH]1 (centres undefined) [Oxfendazole] | 112
COC(=O)Nc1nc2cc([S+]([O-])c3ccccc3)ccc2[nH]1 (centres undefined) [Oxfendazol] | 90.8
NC1CCN(c2nc3c(cc2F)c(=O)c(C(=O)O)cn3-c2ccc(F)cc2F)C1 (centres undefined) [Tosufloxacin hydrochloride] | 104
Cn1ccc2cc3c(cc21)CCN3C(=O)Nc1cccnc1 | 102
N#Cc1c(NC(=O)c2cccc3ccccc23)sc2c1CCCC2 [JNK inhibitor IX] | 84.7
C=CC(=O)Nc1cccc(Nc2nc(Nc3ccc(OCCOC)cc3)ncc2F)c1 | 81.3
CCC(=O)Nc1cccc(Oc2nc(Nc3ccc(N4CCN(C)CC4)cc3OC)ncc2Cl)c1 | 110
Clc1cccc2c1CN(C1=NCCN1)C2 | 97.2
C[C@@H]1COC(Nc2ccc3ncnc(Nc4ccc(OCc5nccs5)c(Cl)c4)c3c2)=N1 | 112 ± 6.4
C=CCOC(Cn1ccnc1)c1ccc(Cl)cc1Cl (centres undefined) [Enilconazole] | 101
C#C[C@]1(O)CC[C@H]2[C@@H]3CCC4=CC(=O)CC[C@@H]4[C@H]3CC[C@@]21CC [Levonorgestrel (Levonelle)] | 114
C#C[C@]1(O)CC[C@H]2[C@@H]3CCC4=CC(=O)CC[C@@H]4[C@H]3CC[C@@]21CC [Norgestrel-(-)-D] | 109
N=C(N)NCCN1CCCCCCC1 [Guanethidine sulfate] | 103
N#C/C(=C\c1ccc(O)c(O)c1)C(=O)NCc1ccccc1 | 99.7 and 93.5
CC1(C)[C@@H](OC(=O)CCC(=O)O)CC[C@]2(C)[C@H]3C(=O)C=C4[C@@H]5C[C@@](C)(C(=O)O)CC[C@]5(C)CC[C@@]4(C)[C@]3(C)CC[C@@H]12 [Carbenoxolone disodium salt] | 104
CC(CN(C)C)CN1c2ccccc2Sc2ccccc21 (centres undefined) [Trimeprazine tartrate] | 106
CCCOc1ccc(C(=O)OCCN(CC)CC)cc1N [Proparacaine hydrochloride] | 102
CC(=O)N[C@@H](CSCC=C(C)CCC=C(C)CCC=C(C)C)C(=O)O [Acetyl-S-farnesyl-L-cysteine] | 123
COC(=O)Nc1ccc2[nH]cc(CCNC(C)=O)c2c1 | 98.8
CCCCCCCCCCCCCCCC(=O)C1=C(O)[C@@H](CO)OC1=O | 104
CN1C2CCC1CC(OC(=O)C(O)c1ccccc1)C2 (centres undefined) [Homatropine Bromide] | 91.7
Cc1cc(C)c(S(=O)(=O)Nc2cccc(C(F)(F)F)c2)c(C)c1 | 96.3
C[C@]1(Cn2ccnn2)[C@H](C(=O)O)N2C(=O)C[C@H]2S1(=O)=O [Tazobactam] | 99 ± 11
CCN(CC)CCCCNc1ncc2cc(-c3cc(OC)cc(OC)c3)c(NC(=O)NC(C)(C)C)nc2n1 | 111 ± 7.3
CC(CN(C)C)C(C)(O)Cc1ccc(Cl)cc1 (centres undefined) [Clobutinol hydrochloride] | 101
CC[C@@H](CO)NCCN[C@@H](CC)CO [Ethambutol dihydrochloride] | 99.6

SMILES | mean cytoplasmic OPP incorporation
CC[C@@H](CO)NCCN[C@@H](CC)CO [Ethambutol HCl] | 98.3
O=C(NCCN1CCCCC1)c1ccc(I)cc1 [N-[2-(Piperidinylamino)ethyl]-4-iodobenzamide] | 100
CC1=C(/C=C/C(=C/C=C/C(C)=C/C(=O)O)c2ccc(C)cc2)C(C)(C)CCC1 | 105
CC(C)C[C@H](NC(=O)CNC(=O)c1cc(Cl)ccc1Cl)B1OC(=O)C(CC(=O)O)(CC(=O)O)O1 | 120
CC(=O)OCC(=O)[C@@]1(OC(C)=O)[C@@H](C)C[C@H]2[C@@H]3C[C@H](F)C4=CC(=O)C=C[C@]4(C)[C@@]3(F)[C@@H](O)C[C@@]21C [Diflorasone Diacetate] | 101
CC1=C(/C=C/C(C)=C\C=C\C(C)=C\C(=O)O)C(C)(C)CCC1 [9-cis Retinoic acid] | 96.4
CNC(=O)c1ccc(C)c(-n2c(C)cc(OCc3ccc(F)cc3F)c(Br)c2=O)c1 | 99.2
NC(=O)c1cccc(N)c1 [3-Aminobenzamide] | 103
Cc1ccc(-n2nc(C(C)(C)C)cc2NC(=O)Nc2ccc(OCCN3CCOCC3)c3ccccc23)cc1 [BIRB 796 (Doramapimod)] | 105
C=CCSCC1Nc2cc(Cl)c(S(N)(=O)=O)cc2S(=O)(=O)N1 (centres undefined) [Althiazide] | 85.6
CC(=O)N(CC(O)CN(C(C)=O)c1c(I)c(C(=O)NCC(O)CO)c(I)c(C(=O)NCC(O)CO)c1I)c1c(I)c(C(=O)NCC(O)CO)c(I)c(C(=O)NCC(O)CO)c1I (centres undefined) [Iodixanol] | 102
CC(C(=O)O)c1ccc(C(=O)c2ccccc2)s1 (centres undefined) [Tiaprofenic acid] | 99.8
CCCCC[C@H](O)/C=C/C=C\CCCCCCCC(=O)O [13(S)-Hydroxy-9Z,11E-octadecadienoic acid] | 99.3
CN(C)CC/C=C1/c2ccccc2COc2ccc(CC(=O)O)cc21 [Olopatadine hydrochloride] | 102
c1nc(CC2CCNCC2)c[nH]1 [Immepip dihydrobromide] | 96.1
O=C(O)C1=CCCN(CCON=C(c2ccccc2)c2ccccc2)C1 | 96.2
c1ccc(CN(CC2=NCCN2)c2ccccc2)cc1 [Antazoline hydrochloride] | 92 ± 3
CC[C@H](C)C[C@H](C)CCCCCCCCC(=O)N[C@H]1C[C@@H](O)[C@@H](NCCN)NC(=O)[C@@H]2[C@@H](O)CCN2C(=O)[C@H]([C@H](O)CCN)NC(=O)[C@H]([C@H](O)[C@@H](O)c2ccc(O)cc2)NC(=O)[C@@H]2C[C@@H](O)CN2C(=O)[C@H]([C@@H](C)O)NC1=O [Caspofungin Acetate] | 95.1
Nc1ncnc2n[nH]c(Nc3ccc(F)cc3)c12 | 83.1
C[C@@]1(c2cc(-c3cncnc3)c(F)cc2F)CCSC(N)=N1 | 104
CCc1cnn2c(NCc3ccc[n+]([O-])c3)cc(N3CCCC[C@H]3CCO)nc12 | 60.9 ± 3.4
Cn1c(=O)c2c(ncn2CCO)n(C)c1=O [Etofylline] | 93.1
COC(C)(C)CCCC(C)C/C=C/C(C)=C/C(=O)O (centres undefined) [Methoprene acid] | 99.2
CCCCCCCCCCCCCCSCC(=O)O [Tetradecylthioacetic acid] | 102
CCc1cc2c(c(CC)n1)CCC(=O)N2Cc1ccc(-c2ccccc2-c2nn[nH]n2)cc1 [ZD 7155 hydrochloride] | 98.8
